Assay results taken from the supplement of paper PMC12217912.
Some of the results follow. The full chains were built here from the parent and the listed change. Values near 0.05 are background.

B1: TEV protease; numbered along this chain (parent)
chain: MGESLFKGPRDYNPISSSICHLTNESDGHTTSLYGIGFGPFIITNKHLFRRNNGTLVVQSLHGVFKVKDTTTLQQHLVDGRDMIIIRMPKDFPPFPQKLKFREPQREERICLVTTNFQTKSMSSMVSDTSCTFPSGDGIFWKHWIQTKDGQCGSPLVSTRDGFIVGIHSASNFTNTNNYFTSVPKNFMELLTNQEAQQWVSGWRLNADSVLWGGHKVFMVKPEEPFQPVKEATQL

Variants of: B1
Test: raw area under fraction-flipped curve 0-4 h after induction (AUC4h, not background-subtracted), DNA-recorder readout of cleavage of the substrate (dimensionless); higher = more cleavage of the substrate by the protease variant
Settings: temperature: 34 °C; time window: 0-4 h after rhamnose induction
Experimental: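 In vivo DNA recorder in E. coli TOP10(DE3) ΔrhaA at 34 °C. Each TEVp single-site mutant (parent TEVp 0) is paired with a single-site variant of the 7-mer TEVs (canonical ENLYFQ|S). The substrate sits between flexible linkers in a Bxb1-sfGFP-TEVs-SsrA fusion, so cleavage stabilises Bxb1 and speeds flipping of a recombination array, read by NGS. The value is the raw area under the fraction-flipped curve over 0-4 h after rhamnose induction (AUC4h), with ≥20 reads per time point. It is not background-subtracted; inactive controls average about 0.047.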
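Note: Bxb1 expression induced with 0.2% (w/v) L-rhamnose at OD600 near 0.5, cultures sampled hourly, flipped fraction per protease–substrate barcode pair counted by paired-end Illumina sequencing.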

Variant	area with substrate ENLYFCS	area with substrate ENLYFFS	area with substrate ENLYFHS	area with substrate ENLYFKS	area with substrate ENLYFMS	area with substrate ENLYFNS	area with substrate ENLYFPS	area with substrate ENLYFSS	area with substrate ENLYFTS	area with substrate ENLYFDS	area with substrate ENLYFGS	area with substrate ENLYFIS	area with substrate ENLYFLS	area with substrate ENLYFRS	area with substrate ENLYFVS	area with substrate ENLYFWS	area with substrate ENLYFYS	area with substrate ENLYFAS	area with substrate ENLYFES
H168S	0.0549	0.0569	0.0643	0.0587	0.0677	0.0601	0.0496	0.0581	0.0574	–	–	–	–	–	–	–	–	–	–
L56K	0.0371	0.0552	0.0568	0.0534	0.0473	0.0451	0.035	0.0481	–	0.049	0.0468	0.0398	0.039	0.0498	0.0413	0.0914	0.0535	–	–
D208L	0.059	–	0.0452	–	0.06	–	0.073	0.0547	0.0722	–	0.0716	0.0537	–	0.0594	–	0.0464	0.0604	0.0617	–
D208M	0.0511	–	0.0575	–	0.0771	0.0581	0.0597	–	–	0.0327	–	0.061	–	0.0477	–	0.0582	0.0551	0.0553	–
D208W	0.0547	0.0739	0.0553	0.0716	0.0682	0.0565	0.0595	–	–	0.0446	0.0622	0.0616	0.0568	–	0.0686	–	0.063	–	0.0554
D208I	0.0475	0.0669	0.0676	0.068	0.0626	0.0641	0.0598	0.0569	0.06	0.0616	0.0681	0.0457	–	0.063	0.0764	0.0633	0.0465	–	0.0562
T23G	0.0482	0.0676	0.0523	0.0523	0.0347	0.0929	0.0505	0.0502	0.0415	0.0579	0.0477	0.0602	0.0503	0.0674	0.0609	0.0584	0.0628	–	0.0673
H215V	0.0588	0.0388	–	–	0.063	–	–	–	0.0576	0.0618	–	–	0.0773	0.0587	0.0512	0.051	0.0554	–	–
G138H	0.0545	–	–	0.0412	–	–	0.0485	–	–	0.0439	–	0.0619	–	–	–	–	0.0616	–	–
I110V	0.0582	0.0595	0.0687	0.0594	0.0827	0.0733	0.059	0.0525	0.0576	0.0601	–	0.0597	0.0611	0.0812	–	0.0542	–	–	0.0562
P222W	–	0.0289	–	0.0572	0.0696	0.0629	0.0437	0.0519	0.0454	–	0.0484	0.0572	0.0506	0.0692	–	0.0492	–	0.074	0.0626
G136E	0.0571	0.0586	0.0292	0.072	0.0639	–	0.0567	0.0514	–	0.0517	–	0.0633	–	0.0461	0.0517	0.0714	0.048	–	0.0603
C152Y	0.0505	–	–	0.034	0.0534	–	0.0531	–	0.0507	–	–	0.0593	–	0.0701	–	0.0541	0.0573	–	0.0421
D128S	–	0.0739	–	–	0.0626	0.055	0.0542	–	–	–	0.0571	0.0553	–	0.0684	0.0337	0.0372	–	0.0607	0.0733
